Values quoted from earlier work, collected in patent US20220233468A1 (priority 2021, published 2022).

Columns and labels:
[1] = system: SARS-CoV-2; conditions: in vitro, from literature (Hoffmann et al.; Ou et al.; Yamamoto et al.; Bestle et al.), cited from earlier work
[2] = system: SARS-CoV; conditions: in vitro, from literature (Hoffmann et al.; Ou et al.); cited from earlier work

Row | Molecule | block of SARS-CoV-2 cell entry [1] | block of SARS-CoV cell entry [2] | block of SARS-CoV-2 cell entry ([1]; listed as Camostat)
1 | N=C(N)c1ccc2cc(OC(=O)c3ccc(N=C(N)N)cc3)ccc2c1 [Nafamostat] | block the SARS-CoV-2 entry and reduce the infection rate | – | –
2 | CN(C)C(=O)COC(=O)Cc1ccc(OC(=O)c2ccc(NC(=N)N)cc2)cc1 [camostat mesylate] | partially blocks | partially blocks | block the SARS-CoV-2 entry and reduce the infection rate
3 | Aprotinin | block the SARS-CoV-2 entry and reduce the infection rate | – | –

Where a name gives a salt, the structure may show the parent alone. Read-outs that look alike come from different tables or passages of the source.
